Experimental data from patent publication US20140335107A1 (published 2014).

T1: human CD79b (human, UniProt P40259 29-229)
T1 construct: endogenous CD79b on B-cell lines (BJAB, BJAB-luciferase, DoHH-2); also called PRO36249; CD79b expressed on the surface of BJAB-luciferase cells
T1 sequence: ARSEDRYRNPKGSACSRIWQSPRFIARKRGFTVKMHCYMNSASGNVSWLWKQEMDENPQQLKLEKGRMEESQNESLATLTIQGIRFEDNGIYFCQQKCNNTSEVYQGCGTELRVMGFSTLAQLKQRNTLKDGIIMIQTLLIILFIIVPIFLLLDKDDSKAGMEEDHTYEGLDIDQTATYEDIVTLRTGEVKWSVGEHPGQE


Target: T1, human CD79b
Assay: FACS on BJAB-luciferase cells
Protocol: The binding affinity of thio huMA79b.v18, thio huMA79b.v28 drug conjugates and thio MA79b drug conjugates to CD79b expressed on BJAB-luciferase cells was determined by FACS analysis. Further, the binding affinity of thio anti-cynoCD79b(ch10D10) drug conjugates to CD79b expressed on BJAB cells expressing cynoCD79b was determined by FACS analysis.
Briefly, approximately 1×10⁶ cells in 100 μl were contacted with varying amounts (1.0 μg, 01. μg or 0.01 μg of Ab per million cells of BJAB-luciferase cells or BJAB cells expressing cynoCD79b (for anti-cynoCD79b thioMAbs)) of one of the following anti-CD79b thioMAb drug conjugates or naked (unconjugated Ab as a control): (1) thio MA79b-LC(V205C)-MC-MMAF or (2) thio MA79b-HC(A118C)-MC-MMAF (FIGS. 29A-B, respectively); (3) thio huMA79b.v18-HC(A118C)-MC-MMAF, (4) thio huMA79b.v18-HC(A118C)-MC-vcPAB-MMAE or (5) thio huMA79b.v18-HC(A118C)-BMPEO-DM1 (FIGS. 30B-D, respectively); (6) thio huMA79b.v28-HC(A118C)-MCvcPAB-MMAE, (7) thio huMA79b.v28-HC(A118C)-BMPEO-DM1, or (8) thio huMA79b.v28-HC(A118C)-MC-MMAF (see FIGS. 31B-31D, respectively); or (9) thio anti-cynoCDb79(ch10D10)-HC(A118C)-MCvcPAB-MMAE, (10) thio anti-cynoCD79b(ch10D10)-HC(A118C)-BMPEO-DM1 or (11) thio anti-cynoCD79b(ch10D10)-HC(A118C)-MC-MMAF (see FIGS. 32B-32D, respectively). PE conjugated mouse anti-human Ig was used as the secondary detecting antibody (BD Cat#555787).

binding result	Binder
binds	thio MA79b-LC(V205C)-MC-MMAF (antibody, human IgG1, kappa, MC-MMAF on the engineered Cys at Kabat position 205 (sequential position 209), cysteine engineered antibody drug conjugate (TDC); also called thio chMA79b-LC(V205C)-MC-MMAF; LC (V205C) thioMAb variant of chMA79b with MMAF) light: DIVLTQSPASLAVSLGQRATISCKASQSVDYDGDSFLNWYQQKPGQPPKLFIYAASNLESGIPARFSGSGSGTDFTLNIHPVEEEDAATYYCQQSNEDPLTFGAGTELELKRTVAAPSVFIFPPSDEQLKSGTASVVCLLNNFYPREAKVQWKVDNALQSGNSQESVTEQDSKDSTYSLSSTLTLSKADYEKHKVYACEVTHQGLSSPCTKSFNRGEC heavy: EVQLQQSGAELMKPGASVKISCKATGYTFSSYWIEWVKQRPGHGLEWIGEILPGGGDTNYNEIFKGKATFTADTSSNTAYMQLSSLTSEDSAVYYCTRRVPVYFDYWGQGTSVTVSS[no letters for human IgG1 constant region]
binds	thio MA79b-HC(A118C)-MC-MMAF (antibody, human IgG1, kappa, MC-MMAF on the engineered Cys at EU position 118 (sequential position 118; Kabat position 114), cysteine engineered antibody drug conjugate (TDC); also called thio chMA79b-HC(A118C)-MC-MMAF; HC (A118C) thioMAb variant of chMA79b with MMAF) light: DIVLTQSPASLAVSLGQRATISCKASQSVDYDGDSFLNWYQQKPGQPPKLFIYAASNLESGIPARFSGSGSGTDFTLNIHPVEEEDAATYYCQQSNEDPLTFGAGTELELKRTVAAPSVFIFPPSDEQLKSGTASVVCLLNNFYPREAKVQWKVDNALQSGNSQESVTEQDSKDSTYSLSSTLTLSKADYEKHKVYACEVTHQGLSSPVTKSFNRGEC heavy: EVQLQQSGAELMKPGASVKISCKATGYTFSSYWIEWVKQRPGHGLEWIGEILPGGGDTNYNEIFKGKATFTADTSSNTAYMQLSSLTSEDSAVYYCTRRVPVYFDYWGQGTSVTVSSCSTKGPSVFPLAPSSKSTSGGTAALGCLVKDYFPEPVTVSWNSGALTSGVHTFPAVLQSSGLYSLSSVVTVPSSSLGTQTYICNVNHKPSNTKVDKKV[no letters for human IgG1 Fc]
